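Dose response: 5 concentrations. Exposure: 48 h. Format: 96-well plates. Endpoint: linear interpolation; highest concentration if not reached. GI50: concentration for 50% inhibition of growth. TGI marks complete inhibition of growth.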
System: NCI-H322M lung
Assay: growth of human tumour cells (NCI), 48 h

CN1CCN(c2ccc(Nc3nc(NCCCNS(=O)(=O)c4ccccc4)c4sccc4n3)cc2)CC1
GI50: 14.1 µM
TGI: 28.5 µM

CCCC(=O)NC(c1ccc2c(c1)OC(F)(F)O2)c1cc(C)c2cccnc2c1O (centres undefined)
GI50: 0.759 µM
TGI: > 100 µM
